# In all, about 33,000 sequences were measured (“E-score (-0.5 to 0.5)”: median about -0.017, highest 2% from about 0.3 on). This is one part of the list.
# Target: T1, Sut1 (UniProt P53032)
# T1 sequence: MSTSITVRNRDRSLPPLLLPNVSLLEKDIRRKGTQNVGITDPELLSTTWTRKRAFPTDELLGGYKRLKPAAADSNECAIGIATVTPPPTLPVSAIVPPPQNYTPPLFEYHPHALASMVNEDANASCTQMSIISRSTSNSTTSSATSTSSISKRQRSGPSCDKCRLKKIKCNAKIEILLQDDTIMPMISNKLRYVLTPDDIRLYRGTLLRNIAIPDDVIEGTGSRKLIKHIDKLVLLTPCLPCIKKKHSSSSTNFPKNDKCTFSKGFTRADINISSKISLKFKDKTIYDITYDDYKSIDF
# Experiment: PBM E-score (8-mer binding enrichment) (E-score (-0.5 to 0.5)); higher = stronger / more preferred TF binding; most listed sequences are background and not binding sites
# Conditions: protein concentration: 200 nM; construct: GST-full length
# Method: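 Universal 'all 10-mer' protein binding microarrays (Agilent AMADID 015681) probed with GST-tagged S. cerevisiae TFs (full-length or DBD) made by in vitro transcription/translation (PURExpress), about 100-200 nM. Bound TF was detected with fluorescent anti-GST. Each ungapped 8-mer (which stands for itself and its reverse complement) is scored by the PBM enrichment score (E-score), a modified Wilcoxon-Mann-Whitney statistic from -0.5 to +0.5, computed with the Universal PBM Analysis Suite. Scale: above 0.35 generally sequence-specific binding.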
row,Sequence,PBM E-score
1,AACTGCAG,-0.0165
2,GTTATTAA,0.295
3,ACCCGTAC,-0.0439
4,ATAAAGGC,0.0697
5,AGAACTCA,0.0672
6,ACTGACCC,-0.139
7,CGGGTCTA,-0.0694
8,AGTAGTGG,0.039
9,AATTAGAA,0.219
10,ACATGTCA,-0.0445
11,AGGCGGGC,-0.246
12,ATAAGGGA,0.0236
13,ATCGGAGC,0.358
14,AGGCTCGC,-0.288
15,AACGTAAT,0.177
16,CGAAGGAA,0.0839
17,CCATTGAC,-0.1
18,AGATTAAA,0.324
19,CCAGCCGC,-0.051
20,ATTCTAAA,0.158
21,AGAGTACG,-0.00068
22,TCCGTTCA,0.241
23,GAGGGACA,-0.242
24,ATGTTAAT,0.164
25,CATGCTCG,-0.103

row,Sequence,PBM E-score
1,ATGGGACG,-0.262
2,CAAAGGGC,-0.136
3,GTAGTATA,0.163
4,AAATGGCA,0.069
5,AAGGCTTA,-0.0684
6,ACCGCATG,-0.189
7,AGGCGCCG,-0.128
8,AGTGTTAC,0.15
9,ACGCTTGA,-0.0408
10,CTTTTAAA,0.0908
11,CCGCAGCA,0.0571
12,ATTACCTG,0.14
13,AAGGCCGT,-0.0495
14,CCACGTTA,0.0293
15,ATAGGACA,-0.121
16,AAATGGGG,-0.226
17,ACTATCCA,-0.00215
18,CTAGAGTA,0.114
19,AATTCGTC,0.147
20,CTCCCTCA,-0.276
21,AACCCTTC,0.113
22,ATCAATAG,0.115
23,ATGGACCA,-0.0417
24,GTGTGTTA,0.123
25,ATCCGTGC,0.0778

row,Sequence,PBM E-score
1,CGGCGGAA,0.179
2,AATCTAAT,0.148
3,CGCGCAAC,-0.114
4,GCACTGAC,-0.129
5,CATAGGAA,-0.0372
6,GGCTATGA,-0.12
7,TATTTGGA,-0.0115
8,GAGGACCA,-0.165
9,CCACGAGA,-0.186
10,AGTCCTCC,-0.103
11,CCCAGACA,-0.207
12,ACACCAGT,-0.167
13,AGAACCCA,-0.159
14,CCCGATGC,0.00652
15,GCCCTGGA,-0.174
16,ACACAAAC,0.0833
17,AACTCTTC,-0.0848
18,TAAACGTA,0.131
19,ATCGCGTA,-0.0814
20,ATAACGCC,0.102
21,ACTGTTCG,0.0597
22,ACGTGTGA,-0.154
23,AACCGGTG,0.0206
24,GAGAAACC,0.0365
25,CTATCCCA,-0.0943

row,Sequence,PBM E-score
1,ACCTATGG,-0.108
2,CCTCCTTA,-0.214
3,AGTAATTA,0.241
4,AGACGAGG,-0.182
5,TATTCACA,0.214
6,CGGGAATC,-0.0254
7,GCTGGGCC,-0.172
8,CACTCGCG,-0.152
9,CTCGTACA,-0.0457
10,TAGTTTGA,0.152
11,CTGGTTAA,0.141
12,CCTCTTAG,0.252
13,ATGTGGAA,0.106
14,GGAATAAC,0.138
15,GGCATCGA,-0.132
16,CGGCCCAC,-0.185
17,AATACACA,0.162
18,CCCTCCGC,-0.318
19,CGGTCAAC,-0.0629
20,GACAACCA,0.0957
21,CAACTGAG,-0.0543
22,ACTTCAGA,0.155
23,TAGCGCCA,-0.145
24,GAAGCCGA,0.146
25,TAGGGATA,-0.0404

row,Sequence,PBM E-score
1,AGACGCCG,-0.0346
2,AGCGGCAG,-0.169
3,CCAATCAG,-0.227
4,CGTCACTA,-0.106
5,ATGTACTA,0.0492
6,ACTAAGGC,-0.131
7,ACCTTTAG,0.0824
8,CCGTGTTA,0.0373
9,AGAGTGTA,-0.154
10,AAAGGTCT,0.051
11,ATAGAACA,0.129
12,CCTGTTAA,-0.0342
13,ATTTCCCG,0.214
14,ACGCGGAT,0.0724
15,AAAGCGCT,0.16
16,ATCACGCA,0.101
17,TAGAGGAA,-0.127
18,GTAGCGGA,0.247
19,ATTGGCAA,-0.0005
20,CTGGTCGC,-0.201
21,CGTCGGGA,0.00562
22,GACGCTGA,-0.19
23,GCCCCCGC,-0.317
24,ACGGCCAT,-0.178
25,GGTTACCA,-0.0179

row,Sequence,PBM E-score
1,CGAGCAAC,0.111
2,TCCATGAA,0.131
3,GCTTGACA,0.0631
4,AACTGTGT,0.101
5,AGCAAGCA,-0.244
6,CACCGCTA,0.0717
7,ATTGTTAA,0.131
8,CTGTTAAG,-0.0667
9,GTCGATTA,0.115
10,TCACGTAA,-0.214
11,CGGCCAAA,0.121
12,ACCCGGTC,-0.124
13,ACTTATTC,0.206
14,AAGCTTCG,0.0691
15,AAGTTGAT,0.157
16,GAGGGTGC,-0.276
17,CCGGCTTC,-0.0089
18,CATAATCA,0.231
19,ACTGATGC,-0.0711
20,AGTGTCTG,-0.134
21,CCTCTCTC,-0.123
22,CGCATGAC,-0.108
23,TCGTGCAA,0.0886
24,CTGGCCCA,-0.235
25,AGGTGTCG,-0.123

row,Sequence,PBM E-score
1,CATCAGGA,0.124
2,AGCCGCTA,-0.129
3,AATCAAGC,-0.00086
4,AGACACCC,-0.159
5,CAACTTAC,0.0196
6,AATTAATA,0.327
7,GAGTGCGC,-0.109
8,CGCTCCAG,-0.183
9,ATCACGTG,-0.143
10,ATAATATA,0.301
11,GGGAGGTA,-0.22
12,TCAGAGCA,-0.241
13,AAATTCCA,0.241
14,GCACGGCA,-0.0169
15,ATATGATA,0.186
16,ACGCTGTG,-0.069
17,ACAACAAC,0.171
18,ACTCAAAT,0.0261
19,GACTTAAC,-0.0138
20,CTTTGCAA,0.102
21,GGCGCTAA,-0.173
22,CCTCTCAG,-0.355

# Reference: the supplement of paper PMC3334620
